The whole screen tested about 50,000 compounds, of which about 800 (1.6%) showed an effect of 50% or more. This is one part of the list.
Each molecule was assayed against Bcl-2-like protein 10 (Homo sapiens) (UniProt Q9HD36) (assay: TR3 peptide-Bcl-B binding displacers, biochemical primary FP assay, phenotype converters (AID 1240;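 further: 0% = Bcl-B with tracer peptide and DMSO and 100% = tracer peptide lacking Bcl-B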)). Settings: GST-Bcl-B / FITC-TR3 peptide fluorescence polarization; stronger effect = higher value; compound at 3.75 mg/L.
Sequence of UniProt Q9HD36 (Q9HD36 whole entry, looked up): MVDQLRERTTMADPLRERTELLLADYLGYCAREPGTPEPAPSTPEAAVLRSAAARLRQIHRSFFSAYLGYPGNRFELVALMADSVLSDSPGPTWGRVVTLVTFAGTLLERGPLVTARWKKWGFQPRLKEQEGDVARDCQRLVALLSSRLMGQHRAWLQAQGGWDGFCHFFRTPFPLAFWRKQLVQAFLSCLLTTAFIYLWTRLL
O=C(NCCCNc1ccc([N+](=O)[O-])cc1)c1ccc(Cl)cc1Cl was tested, and the displacement was 16%. With Cc1ccc(O)c(N2C(=O)c3ccc(Oc4ccc([N+](=O)[O-])cc4)cc3C2=O)c1 the displacement was -10.9%. With CC1=C/C(=N/OS(=O)(=O)c2ccc(C)cc2)C=CC1=O the displacement was 21.6%. Molecule Cc1ccc(OCCn2ccnc2)cc1 has a displacement of 7.5%. For CCCc1cc(=O)oc2cc(OCC(=O)N(C)C)ccc12, the displacement was 10.9%. COC(=O)C(=O)/C=C(/O)c1ccc(Br)cc1 showed a displacement of 0.3%. Work on O=C(O)C12CC3CC(C(=O)O)(C1)CC(C(=O)O)(C3)C2 yielded a displacement of -4.5%. In the case of COC(=O)C1=C(C)NC2=C(C(=O)CC(c3cccs3)C2)C1c1ccc(C)s1 (centres undefined), the displacement is reported as 5.3%. For CCC(C)NC(=O)CN(c1ccc(Br)cc1)S(C)(=O)=O (centres undefined), the displacement was 12.4%. Molecule CCc1ccc(N2C(=O)NC(=O)/C(=C\c3ccc(N4CCOCC4)o3)C2=O)cc1 has a displacement of 15.7%. CCN(CC)S(=O)(=O)c1ccc(Cl)c(C(=O)Nc2ccccn2)c1 gave a displacement of -6%. For O=C(O)Cc1ccc(C(F)(F)F)cc1[N+](=O)[O-], the displacement was 8.7%. Molecule COc1cc(NC(=O)COc2ccc(C)cc2)cc(OC)c1 has a displacement of 3.9%. S=C(NCC1OCCc2ccccc21)Nc1ccccc1 (centres undefined) gave a displacement of -12.7%. For COC(=O)C1=C(C)NC2=C(C(=O)CC(c3cccs3)C2)C1c1ccc2c(c1)OCO2 (centres undefined), the displacement was 1.8%. Molecule CCCC(=O)C1=C(O)C(C(=O)OC)C(C)(C)CC1=Nc1ccccc1OC (centres undefined) has a displacement of -2%. COc1ccc(-c2cc(C(F)(F)F)n3nc(C(=O)N4CCCc5ccccc54)cc3n2)cc1 was tested, and the displacement was -3.3%. With CCOc1ccc(-c2csc(/C(C#N)=C\Nc3ccc(F)cc3)n2)cc1 the displacement was -6%. Molecule CCOc1ccc(/C=C(/NC(=O)c2cccc(Br)c2)C(=O)N2CCCC2)cc1 has a displacement of -11.7%. For COC(=O)c1cccc(NC(=O)c2ccccc2OC)c1, the displacement was -9.7%. O=C(Nc1ccc2c(c1)Cc1ccccc1-2)c1cc(Br)ccc1Cl showed a displacement of 11.9%. COc1cccc(CN2CCN(Cc3ccccc3[N+](=O)[O-])CC2)c1 gave a displacement of -16.6%. COc1ccc(C(=O)Nc2ccc(Br)cc2)cc1OC was tested, and the displacement was 14.5%. With O=C(/C=C/c1cn(Cc2ccccc2)c2ccccc12)c1ccc(Cl)cc1 the displacement was 11.4%. Work on CC1(CC(=O)N/N=C/c2ccc(-c3ccc(Cl)cc3)o2)OCCO1 yielded a displacement of 2.5%. With CC(C)(C)C1CCc2c(sc(NC(=O)C3CCCO3)c2C#N)C1 (centres undefined) the displacement was -2.1%. O=[N+]([O-])c1ccc(/C=C(Cl)/C=N\n2cnnc2)cc1 gave a displacement of 10.5%. For O=C(NC1(Cc2ccc(O)cc2)CCCCC1)c1ccccc1, the displacement was -2.6%. Cc1cccc(OCC(=O)Nc2ccc(Cl)c(Cl)c2)c1C showed a displacement of 3.3%. CCc1ccc(-c2nnc(-c3ccc(-c4ccc(OC)cc4)cc3)o2)cc1 gave a displacement of -0.6%. Molecule CCOC(=O)c1ccc(NC(=S)NC(NC(=O)c2ccccc2)C(Cl)(Cl)Cl)cc1 (centres undefined) has a displacement of -10.6%. Work on CN1C(=O)c2ccc(N(C)C)cc2C1=O yielded a displacement of 20.2%. With COc1ccc(Br)cc1CN1CCN(C2CCCCC2)CC1 the displacement was 6.2%. O=[N+]([O-])c1cccc(S(=O)(=O)NCC2CCCO2)c1 (centres undefined) showed a displacement of 14.5%. With O=C(/C=C/c1ccccc1)NC(=S)Nc1ccc(Br)cn1 the displacement was 13.6%. With O=C(NCCCNc1ccc(Cl)cc1[N+](=O)[O-])c1ccccc1F the displacement was 8.2%. Work on O=C(/C=C/c1ccc2c(c1)OCO2)NC(c1ccccc1)c1ccccc1 yielded a displacement of 6.1%. With Cc1cc(Br)ccc1NC(=O)c1ccc(Cl)c([N+](=O)[O-])c1 the displacement was 10.5%. In the case of CCCC(=O)NS(=O)(=O)c1ccc(NC(=O)c2ccccc2)cc1, the displacement is reported as 6.1%. For CCC(C)c1ccc(NC(=O)/C=C/c2cccc([N+](=O)[O-])c2)cc1 (centres undefined), the displacement was 10.1%. For O=C(NCCOc1cccc2ccccc12)Nc1cc(F)c(F)cc1Cl, the displacement was -7.6%. O=C(CN1CCN(c2ccc([N+](=O)[O-])cc2)CC1)Nc1nccs1 was tested, and the displacement was 0.2%. Molecule Cc1ccc(C(=O)N/N=C\c2ccc(I)o2)o1 has a displacement of 8.4%. O=C1N=c2ccccc2=C1c1sc(=S)n(-c2cccc(C(F)(F)F)c2)c1O gave a displacement of -0.5%. CCOc1ccccc1NC(=O)Cc1ccc(OC)cc1 showed a displacement of -36.2%. Molecule O=C1CCCC2=C1C(c1ccc(O)cc1)Nc1ccccc1N2 (centres undefined) has a displacement of -2.7%. O=C(Oc1cccc2ccccc12)c1ccco1 gave a displacement of 9.4%. Molecule O=C(NCCN1CCN(S(=O)(=O)c2ccc([N+](=O)[O-])cc2)CC1)C(=O)Nc1ccccc1 has a displacement of 11.9%. COC(=O)c1ccc(NC(=O)c2ccccc2C(F)(F)F)cc1 gave a displacement of -8.3%. Molecule CN=C(Nc1ccc(Cl)cc1)SC1CC(=O)N(c2ccccc2F)C1=O (centres undefined) has a displacement of 10.9%. In the case of Cc1cc(C)cc(OCCCCCCn2ccnc2)c1, the displacement is reported as 8.9%. Molecule CN(C)c1ccc(NC(=O)COc2ccc(Cl)cc2Cl)cc1 has a displacement of 15%. Molecule CCNC(=O)N1c2ccc(OCC)cc2C(C)=CC1(C)C has a displacement of -0.4%. In the case of COc1ccc(N2C(=O)C=C(Nc3ccccc3)C2=O)cc1, the displacement is reported as 5.4%. For Cc1cccc(OCC(=O)N/N=C/c2cccc(OC(=O)c3cccc(F)c3)c2)c1, the displacement was 18.5%. Molecule Cc1ccc(-c2nc3cc(Cl)cc(Cl)c3o2)cc1NC(=O)c1ccc2c(c1)OCCO2 has a displacement of 6.6%. O=C(NCCC12CC3CC(CC(C3)C1)C2)Nc1ccccc1 showed a displacement of 14.6%. Molecule COc1cc(CN=Cc2c(O)n(-c3ccc(F)cc3)c(=O)[nH]c2=O)cc(OC)c1 has a displacement of 84.7%. O=C(COc1ccc(Cl)cc1Br)NNC(=O)c1ccncc1 was tested, and the displacement was -4.5%. For O=C(Nc1ccc(C(=O)c2ccccc2)cc1)c1ccc(Cl)cc1, the displacement was -5.1%. With CCOC(=O)c1ccccc1NC(=O)CN(c1cccc(OC)c1)S(=O)(=O)c1ccccc1 the displacement was -5.1%. Work on O=C(Nc1ccc2nn(-c3cccc4ccccc34)nc2c1)c1ccc([N+](=O)[O-])o1 yielded a displacement of 15.7%. Oc1cccc(/C=N/Nc2ccccn2)c1 gave a displacement of -2.7%. O=C(CN1C(=O)/C(=C/c2ccccc2Cl)SC1=S)Nc1cccc(C(=O)O)c1 showed a displacement of 21%. Molecule COc1ccc(/C=C2\SC(=O)N(CC(=O)Nc3nccs3)C2=O)cc1OC has a displacement of -10.4%. Molecule CC(C)(C)c1ccc(OCC(=O)Nc2cccc(OC(F)(F)F)c2)cc1 has a displacement of 1.1%. Work on O=C(N/N=C/c1ccc(-c2cccc(Cl)c2)o1)c1cccnc1 yielded a displacement of 7.7%. C=CCN1C(=O)NC(=O)/C(=C/c2ccc(OCc3ccccc3[N+](=O)[O-])c(OC)c2)C1=O was tested, and the displacement was 4.9%. For CCn1c(C)c(C(=O)OC)c(/C=C2\C(=O)C=Cc3ccccc32)c1O, the displacement was -11.8%. O=C1c2cccc3cccc(c23)C(=O)N1/N=C/c1ccc(Br)cc1 gave a displacement of 8.4%. Oc1ccccc1C(=S)N1CCOCC1 was tested, and the displacement was 10.3%. Molecule CCOC(=O)c1c(NC(=O)c2cccc(Cl)c2)sc(C(=O)Nc2ccccc2C(F)(F)F)c1C has a displacement of 34.5%. In the case of COc1cc(C(=O)NC(C)C2CC3CCC2C3)cc(OC)c1OC (centres undefined), the displacement is reported as 4.2%. With Cc1ccc(OCC(=O)Nc2ccc(F)c([N+](=O)[O-])c2)cc1 the displacement was 13.4%. With COc1cc(C=C2C(=O)c3ccccc3C2=O)cc(I)c1OCc1ccc(Cl)cc1 the displacement was -0.5%. CCCNC(=O)c1cc(OC)c(OC)cc1[N+](=O)[O-] gave a displacement of 18.2%. Work on O=C(Nc1ccc2ccccc2c1)c1cc(Cl)ccc1Cl yielded a displacement of 5.2%. CCCc1ccc(-c2nc(-c3ccccn3)no2)cc1 was tested, and the displacement was -10.9%. In the case of COc1cccc(NC(=O)CN(c2cccc(C(F)(F)F)c2)S(C)(=O)=O)c1, the displacement is reported as 3.3%. With CCC(=O)c1ccc(N2CCN(C(=O)c3ccc(F)c(F)c3)CC2)c(F)c1 the displacement was -1.9%. COc1ccc(CN(C(=O)c2ccco2)C2CC(C)N(C)CC2C)cc1 (centres undefined) showed a displacement of -10.1%. COc1ccc(C)cc1NC(=O)c1ccc(C)c(C)c1 gave a displacement of 2%. Cn1cnc2c1c(=O)n(Cc1ccc(F)cc1)c(=O)n2C showed a displacement of 6%. Work on CC(=O)Nc1ccccc1C(=O)N1CCN(c2cccc(Cl)c2)CC1 yielded a displacement of -8.2%. CCOc1ccc(NC(=O)CN(c2cc(C)cc(C)c2)S(=O)(=O)c2ccccc2)cc1 showed a displacement of 1.3%. CC1S/C(=N/N=C/c2cccs2)NC1=O (centres undefined) gave a displacement of 7.2%. O=C(/C=C/c1ccccc1)NC(=S)Nc1cccc(NC(=O)c2ccccc2Cl)c1 showed a displacement of -2.9%. In the case of NC1=NC2(CCCCC2)N=C(Nc2ccc(Cl)cc2)N1, the displacement is reported as -5.4%. Work on Nc1c(C(=O)c2cccc([N+](=O)[O-])c2)sc2nccc(Nc3ccccc3)c12 yielded a displacement of -7.3%. In the case of COc1cc(C2C3=C(CC(C)(C)CC3=O)OC3=C2C(=O)CC(C)(C)C3)cc(Br)c1OCc1ccccc1, the displacement is reported as 8%. O=C(O)C1CCCCC1C(=O)NCCC1=CCCCC1 (centres undefined) gave a displacement of -11.6%. O=S(=O)(c1cccc2ccccc12)n1nnc2ccccc21 was tested, and the displacement was 0.1%. Work on O=C(CSc1nnc(CCCN2C(=O)c3cccc4cccc(c34)C2=O)n1-c1ccccc1)NCc1cccnc1 yielded a displacement of 8.3%. CCOc1cc(OCC)cc(C(=O)Nc2ccc3oc(-c4cccnc4)nc3c2)c1 gave a displacement of 5.6%. COc1ccc(OC)c(NC(=O)c2cc3ccccc3o2)c1 was tested, and the displacement was 1%. Cc1nn(C(=O)C(C)N2C(=O)c3ccccc3C2=O)c(C)c1Br (centres undefined) gave a displacement of 11.6%. In the case of CCOc1ccccc1/C=C/C(=O)c1cccs1, the displacement is reported as -11.9%. With Cc1ccccc1NC(=O)C1COc2ccccc2O1 (centres undefined) the displacement was -7.2%. With COc1ccc2c(c1OC)C(=O)OC2Nc1ccc(NC(C)=O)cc1 (centres undefined) the displacement was 13.8%. Work on O=C(NCCCn1ccnc1)C12CC3CC(CC(C3)C1)C2 yielded a displacement of 3.1%. CC(C)(C)C(=O)Nc1cccc(C(=O)Nc2c[nH]c(=O)[nH]c2=O)c1 gave a displacement of 10.3%. Work on Cc1nonc1OCCn1nnnc1-c1ccccc1 yielded a displacement of -9.7%. COc1cc(C(=O)Nc2ccc(S(=O)(=O)Nc3ncccn3)cc2)c(Br)c(OC)c1OC gave a displacement of -2.6%. Work on O=C1NN(c2ccccc2)C(=O)/C1=C/c1ccc(OCCOCCOc2ccccc2)cc1 yielded a displacement of 5.1%. Molecule COc1ccc(/C=N\OCC(=O)Nc2oc(-c3ccccc3)c(-c3ccccc3)c2C#N)cc1OC has a displacement of -12.8%. O=C(CCc1ccccc1)N1CCN(c2ccc(F)cc2)CC1 showed a displacement of -7.7%. For Cc1cccc(N2C(=O)CC(N3CCN(C(c4ccccc4)c4ccccc4)CC3)C2=O)c1 (centres undefined), the displacement was 7.1%. COc1ccc(NC(=O)/C=C/c2ccc(OC)c(OC)c2)c(OC)c1 showed a displacement of -0.9%. With O=C(c1cnn2c(C(F)(F)F)cc(-c3ccc4c(c3)OCO4)nc12)N1CCOCC1 the displacement was 3.2%.

From PubChem BioAssay AID1240 (Sanford-Burnham Center for Chemical Genomics, 2008)
